# The other results are listed elsewhere or left out. The energies were worked out here from pooled read counts, against the library average; single values are noisy.
# Target: T1, Pho4 (S. cerevisiae) (UniProt P07270)
# T1 sequence: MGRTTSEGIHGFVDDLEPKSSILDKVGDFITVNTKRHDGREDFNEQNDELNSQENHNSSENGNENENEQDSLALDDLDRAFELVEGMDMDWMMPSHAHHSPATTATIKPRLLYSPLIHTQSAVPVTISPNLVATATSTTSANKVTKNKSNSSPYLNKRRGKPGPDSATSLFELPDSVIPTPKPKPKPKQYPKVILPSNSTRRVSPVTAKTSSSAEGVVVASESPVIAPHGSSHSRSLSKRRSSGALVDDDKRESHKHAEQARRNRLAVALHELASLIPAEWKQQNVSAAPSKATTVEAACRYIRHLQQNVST
# Assay: relative binding free energy (BET-seq); higher = weaker binding
# Settings: reference: library average
row,Sequence,relative binding free energy [kcal/mol]
1,GTCGACACGTGTTGGG,0.13
2,TAGGCCACGTGGTGTT,-0.15
3,CGAGTCACGTGAGTGA,0.29
4,AAGGGCACGTGTGGCC,-0.08
5,GGAGTCACGTGGATGA,0.18
6,TATTACACGTGTTCGT,0.15
7,TGTGGCACGTGGAGAT,-0.03
8,AGAATCACGTGGGGGC,0.19
9,GAAAGCACGTGGTGAT,0.03
10,GAGGTCACGTGAGTAT,0.43
11,TGGTACACGTGAGTGC,0.23
12,AAATTCACGTGGTGCA,0.21
13,GGTTACACGTGTGGAC,0.29
14,ATATGCACGTGGTTTG,-0.21
15,TAGAACACGTGGGGGT,-0.07
16,AATGTCACGTGGAAAT,0.37
17,TTTGCCACGTGGTTTA,-0.02
18,TATGACACGTGGTAAG,-0.01
19,TGGTGCACGTGAGAAA,0.09
20,CTATGCACGTGAGGGA,0.2
21,TGGAGCACGTGAGTTG,0.12
22,GCAGACACGTGATGGT,0.18
23,TGATTCACGTGGGTGG,0.23
24,TATATCACGTGCGTTG,-0.01
25,CGGTGCACGTGTCAGG,0.01
26,TTGAGCACGTGCGATT,0.13

row,Sequence,relative binding free energy [kcal/mol]
1,AATAGCACGTGTGTTG,-0.13
2,AGTCGCACGTGTTTCG,0.14
3,TGGGTCACGTGTTCTA,0.2
4,GTTGGCACGTGTTAGA,0.07
5,GGCGCCACGTGCAGGG,0.09
6,GGATTCACGTGAAGCT,0.52
7,CGTAACACGTGGTGTG,-0.18
8,GTAGGCACGTGCGATG,-0.03
9,GGGGTCACGTGTTGAG,0.32
10,GGGTGCACGTGAAGTA,0.19
11,AATTACACGTGAGGTA,0.51
12,ATATTCACGTGGTTCT,0.1
13,ATTATCACGTGGGGTA,0.04
14,GGGGTCACGTGTGTAC,0.17
15,GATCGCACGTGTTGTT,0.11
16,CTTCTCACGTGGTTGG,0.08
17,TTAAACACGTGGAAGT,0.07
18,ATTAGCACGTGGTAGG,-0.14
19,TTAGTCACGTGTGGTG,0.02
20,CATGGCACGTGTGTGT,-0.05
21,AGGTACACGTGTAAGA,0.11
22,GGTAGCACGTGCGTAT,-0.04
23,GTGCTCACGTGTGTTT,0.34
24,GGCTTCACGTGGTGTA,0.16
25,TTTTACACGTGAGCTA,0.39
26,TGTGTCACGTGATCAG,0.31

row,Sequence,relative binding free energy [kcal/mol]
1,AGTGACACGTGCGGGC,-0.09
2,TGCGCCACGTGTGGTT,-0.1
3,CTTTGCACGTGGAAGT,0.26
4,ATGCACACGTGGGAGT,-0.08
5,ATGGTCACGTGAACGA,0.41
6,GTGTACACGTGAGTTA,0.14
7,TATTACACGTGAGCGT,0.05
8,GGGGGCACGTGAGCAT,0.11
9,TTGCTCACGTGGTGGT,0.18
10,AGGCTCACGTGTAGGA,0.24
11,TAGGGCACGTGGCAAG,-0.31
12,GGTCACACGTGGGTTG,-0.05
13,GTTTCCACGTGTGCGT,0.06
14,TTATTCACGTGCTGAT,0.25
15,TCGGTCACGTGAGCGT,0.17
16,ATAGTCACGTGAATAT,0.28
17,GCTGGCACGTGTTTGT,-0.06
18,CATGTCACGTGGTGAC,0.06
19,TTAATCACGTGTAGTA,0.12
20,CGTTACACGTGGTAAT,0.07
21,TGATTCACGTGTAACT,0.26
22,GGGAACACGTGTATTT,0.22
23,GAAGGCACGTGACTGG,-0.01
24,GGCTTCACGTGAGGTG,0.41
25,TAGCACACGTGGGTGT,-0.1
26,CATGTCACGTGTGTTA,0.1

row,Sequence,relative binding free energy [kcal/mol]
1,TTATTCACGTGATATC,0.37
2,TTGCACACGTGTGGTA,-0.05
3,GTGGGCACGTGCTAGT,-0.18
4,TGTATCACGTGAGCTT,0.14
5,GTATGCACGTGTATTT,0.11
6,GTGCTCACGTGAATGG,0.29
7,AAGTTCACGTGCTTTT,0.38
8,GTGTGCACGTGATAGA,-0.04
9,CTGTGCACGTGAGGTC,0.16
10,ATGGGCACGTGTGAGT,0.1
11,TAGAACACGTGTGGAT,-0.03
12,TCCTGCACGTGTGGGA,0
13,GCTCTCACGTGTAGGG,0.24
14,GGGGTCACGTGAGACT,0.37
15,TGCAGCACGTGGGGCT,-0.36
16,TGGCTCACGTGAATTG,0.29
17,GTGTGCACGTGATGTA,0.14
18,CGTGGCACGTGCGTTA,-0.07
19,GGTGACACGTGAGCGT,0.05
20,TTTAACACGTGTTTTT,0.04
21,AGGCTCACGTGGTGCT,0.23
22,CCGGTCACGTGTTTGT,0.04
23,TGCTGCACGTGGAATG,0.15
24,TTTGTCACGTGTGTGG,0.19
25,AGCGGCACGTGGTAGC,-0.14
26,AGTGCCACGTGGTATT,-0.31

row,Sequence,relative binding free energy [kcal/mol]
1,TCGGACACGTGCTGGG,0
2,TGTCTCACGTGGGATA,0.02
3,AGGGGCACGTGATGAT,0.11
4,GTGGCCACGTGGGTGC,-0.25
5,TGCGGCACGTGATGTG,0.05
6,ATTTACACGTGAAAGG,0.14
7,ATATACACGTGTATGA,-0.09
8,CTAATCACGTGTTTGG,0.09
9,GGGAACACGTGGCTGG,-0.1
10,GATTGCACGTGAGGTC,0.27
11,GCGGACACGTGTAGTT,0.19
12,ATAATCACGTGGGTAA,-0.04
13,CGATGCACGTGTAAGG,0.04
14,AATGACACGTGATTTA,0.16
15,CTGGTCACGTGAAGTA,0.13
16,TTAATCACGTGGAGTG,0.17
17,GGTAACACGTGGAGGC,0.03
18,GGGGCCACGTGGGTAG,-0.24
19,AGCATCACGTGGTGGT,-0.15
20,CTCTTCACGTGAGGTG,0.28
21,TTCTTCACGTGTTATT,0.18
22,AGTGTCACGTGTTTGG,0.15
23,GGTCGCACGTGTGAAT,0.21
24,GAGGACACGTGGAGGG,0.06
25,TTCATCACGTGGTAAT,0.18
26,TTATTCACGTGTCCTG,0.27

row,Sequence,relative binding free energy [kcal/mol]
1,TGGGACACGTGAAGGT,0.3
2,TCAGGCACGTGTTATT,-0.16
3,AAGAGCACGTGAGGCT,0.09
4,AGTGTCACGTGGTTGC,0.08
5,ACGTTCACGTGCTGGT,0.15
6,TGTCTCACGTGGGGGG,0.08
7,TGCGTCACGTGTGTGT,0.06
8,TGCCGCACGTGTGGTT,0.01
9,TTATGCACGTGGTTAC,-0.16
10,AGTATCACGTGGGGAA,0.07
11,ATCTGCACGTGGGTTA,-0.14
12,TCATTCACGTGAGTAG,0.44
13,TAAATCACGTGGGAGG,0.12
14,CTGTACACGTGGTGAT,0.08
15,ACTATCACGTGGGGTG,-0.12
16,ATTTCCACGTGATAGT,0.25
17,GTTCGCACGTGAGGGT,0.27
18,TGGGTCACGTGGTCAC,0.19
19,GAAGGCACGTGTATAG,-0.04
20,ATTTGCACGTGGGACT,-0.12
21,AGCGGCACGTGGGGTG,-0.26
22,GGAGGCACGTGTAGTA,-0.05
23,GGCAACACGTGGTTGG,-0.04
24,ATTGGCACGTGGGTTA,-0.22
25,GCGGTCACGTGTTGGA,0.23
26,ATTAGCACGTGGGCAG,-0.26

row,Sequence,relative binding free energy [kcal/mol]
1,TTGACCACGTGGGTAT,-0.17
2,GAAGGCACGTGAGTGA,0.23
3,GGTATCACGTGAAGCT,0.41
4,CTGGGCACGTGAAAAG,0.27
5,GTCTGCACGTGGATTG,0.02
6,GGTGTCACGTGTGGAC,0.25
7,AATAGCACGTGGTGAT,-0.15
8,ATGGGCACGTGCCTTT,-0.08
9,GGGTTCACGTGATAGG,0.46
10,TTTAACACGTGTATAG,-0.01
11,CGACGCACGTGTGGGT,0.11
12,GTCAGCACGTGGGCGT,-0.15
13,TAGAGCACGTGTAGTA,-0.09
14,ATAGGCACGTGTCGGT,-0.06
15,GGGTTCACGTGACCTG,0.46
16,ATAGTCACGTGTAGCG,0.15
17,TGAGGCACGTGTCTTA,0
18,GATGGCACGTGCTTTT,0.03
19,GGTAGCACGTGAGATG,0.11
20,ATGCCCACGTGGGTGG,-0.31
21,GTGGTCACGTGTAAGA,0.3
22,TCTGTCACGTGCGGTA,0.03
23,TTACCCACGTGTGGTG,0
24,GTAAACACGTGGAGGT,0.02
25,ATGATCACGTGAAGTG,0.41
26,TGAGGCACGTGAGTTT,0.09

row,Sequence,relative binding free energy [kcal/mol]
1,CGGTGCACGTGCCGGG,-0.1
2,CGAAACACGTGTTTGT,0.02
3,TGAAGCACGTGGCAGG,-0.15
4,CCATTCACGTGTGGTT,0.41
5,AAGAGCACGTGGAGGT,-0.24
6,GGCTTCACGTGATTTA,0.44
7,AAAAGCACGTGTGAAG,0.12
8,GTTATCACGTGTAGCA,0.19
9,CAGGACACGTGAGGTG,0.23
10,GTTGACACGTGGGTCA,-0.17
11,TTGAGCACGTGTTATT,-0.06
12,TTGGTCACGTGGCCTG,0
13,TGCGGCACGTGTATGT,-0.01
14,CTTTACACGTGTAGTT,0.17
15,CTCGGCACGTGTTAGT,-0.11
16,GTCTTCACGTGTGTAA,0.28
17,TGGTACACGTGGTCGA,-0.04
18,AAGTTCACGTGTATAT,0.18
19,CGGGGCACGTGTTAGC,-0.05
20,TGGGTCACGTGTAATC,0.15
21,GATCTCACGTGGGGTG,0.33
22,TATAGCACGTGCTATG,-0.06
23,TATTGCACGTGTTAGC,-0.09
24,CGGAGCACGTGGGAAG,-0.05
25,GAATGCACGTGACGGG,0.22
26,GTGGGCACGTGTTTTG,0.04

row,Sequence,relative binding free energy [kcal/mol]
1,TTGTTCACGTGGCAGT,0.2
2,TGCGGCACGTGGAAGG,-0.01
3,TATGTCACGTGTGCGC,0.15
4,TTTGTCACGTGAGCGT,0.18
5,AGGATCACGTGCTGGA,0.23
6,TAGTGCACGTGTGAAT,0.02
7,GTTGACACGTGTAGTA,0.19
8,ACTGTCACGTGTTCTT,0.13
9,GTTAGCACGTGGTTAG,-0.1
10,GTTGACACGTGAGTTA,0.24
11,TTTGCCACGTGATATT,0
12,GTATGCACGTGTTGAA,0.1
13,GGTCTCACGTGCGTGA,0.22
14,GTTACCACGTGTTGGT,0.07
15,GGTGGCACGTGACACG,0.05
16,GTCGTCACGTGTAGGG,0
17,GGAGGCACGTGAGTAC,0.19
18,TGCTTCACGTGGGTCA,0.02
19,CGGGTCACGTGAAGAG,0.44
20,CTTGTCACGTGTGATA,0.02
21,ATTGTCACGTGCGTGA,0
22,AAATGCACGTGGTAAG,0.02

# Source: the BET-seq Pho4 binding data (Le et al. 2018)
